Laboratory results taken from patent US12215129B2, “Antibacterial cyclopeptides targeting acinetobacter and other gram-negative pathogens” (priority 2020, dated 2025).
Like-named read-outs stand apart in the source and are kept apart here. Starred links: 1 amine or outer side, 2 acyl side, 3 side chain; linkers in the order of their positions; H or OH if unused. Positions of bridges follow the written chain, without caps; N, C: chain ends. Non-standard residues stand in square brackets, D forms with d. Residues, ends and D or L forms follow the SMILES beside them. *: point of attachment. dAsp(3R-OH) = N[C@@H](C(=O)O)[C@@H](O)C(=O)O; Palmitoleoyl = CCCCCC/C=C\CCCCCCCC(=O)*; X1 = NC[C@H](O)[C@@H](N[*:1])C(=O)[*:2]; X2 = CCC(C)(O)[C@H](N[*:1])C(=O)[*:2]; d(aIle) = CC[C@H](C)[C@@H](N)C(=O)O; Myristoyl = CCCCCCCCCCCCCC(=O)*; dOrn = NCCC[C@@H](N)C(=O)O; hSer = N[C@@H](CCO)C(=O)O

System: A. baylyi strain ADP1
Conditions: for effect on cells / terminal cell morphology: A. baylyi; for effect on cells: concentrations 4 times the MIC; for terminal cell morphology: drug at the MIC
[1] = concentration used for growth inhibition, FIG. 4

CCCCCC/C=C\CCCCCCCC(=O)N[C@H](CCCN)C(=O)N[C@@H](CO)C(=O)N[C@H](C(=O)N[C@@H](C(=O)N[C@@H](C(=O)N[C@@H]1C(=O)NCC(=O)N[C@@H](C(C)(O)CC)C(=O)N[C@H]([C@@H](C)CC)C(=O)N[C@@H](CCO)C(=O)N[C@@H](C)C(=O)N[C@H]([C@@H](C)CC)C(=O)N[C@@H](CCC(=O)O)C(=O)O[C@@H]1C)[C@@H](O)CN)[C@@H](O)C(=O)O)C(C)C (stereo partly drawn) [Compound 2, Turnercyclamycin B] (Palmitoleoyl-[dOrn]SV[dAsp(3R-OH)][X1]TG[X2][d(aIle)][hSer]A[d(aIle)]E; ester 6-C)
effect on cells: killed cells immediately
terminal cell morphology: rounded and clumped
approximate MIC (A. baylyi) [1]: 8 µg/mL

Colistin [reference compound]
approximate MIC (A. baylyi): 0.5 µg/mL
terminal cell morphology: clumped, rounded cells

CCCCCCCCCCCCCC(=O)N[C@H](CCCN)C(=O)N[C@@H](CO)C(=O)N[C@H](C(=O)N[C@@H](C(=O)N[C@@H](C(=O)N[C@@H]1C(=O)NCC(=O)N[C@@H](C(C)(O)CC)C(=O)N[C@H]([C@@H](C)CC)C(=O)N[C@@H](CCO)C(=O)N[C@@H](C)C(=O)N[C@H]([C@@H](C)CC)C(=O)N[C@@H](CCC(=O)O)C(=O)O[C@@H]1C)[C@@H](O)CN)[C@@H](O)C(=O)O)C(C)C (stereo partly drawn) [Compound 1, Turnercyclamycin A] (Myristoyl-[dOrn]SV[dAsp(3R-OH)][X1]TG[X2][d(aIle)][hSer]A[d(aIle)]E; ester 6-C)
effect on cells: killed cells immediately
terminal cell morphology: rounded and clumped
approximate MIC (A. baylyi) [1]: 8 µg/mL
